Screen size: about 50,000 compounds; about 800 (1.6%) showed an effect of 50% or more. The list shows a part of the results.

For the experiment, the target named is Bcl-2-like protein 10 (Homo sapiens) (UniProt Q9HD36). As to the kind of experiment: TR3 peptide-Bcl-B binding displacers, biochemical primary FP assay, phenotype converters (AID 1240).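 Also: 0% = Bcl-B with tracer peptide and DMSO and 100% = tracer peptide lacking Bcl-B.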 The following applies: GST-Bcl-B / FITC-TR3 peptide fluorescence polarization; stronger effect = higher value; compound at 3.75 mg/L. On the technique in general: Polarisation of emitted light reports the rotation of a fluorescent probe.
Chain of UniProt Q9HD36 (Q9HD36 whole entry, looked up): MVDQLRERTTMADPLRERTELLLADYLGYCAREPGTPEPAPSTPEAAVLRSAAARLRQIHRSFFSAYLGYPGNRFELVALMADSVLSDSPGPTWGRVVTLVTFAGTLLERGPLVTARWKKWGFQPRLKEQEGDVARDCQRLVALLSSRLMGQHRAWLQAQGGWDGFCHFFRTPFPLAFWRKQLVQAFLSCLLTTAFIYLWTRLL
For `O=C(CC(=O)c1ccccc1O)c1ccco1`, the displacement is 1.2%.
`O=C(CCc1ccccc1)Nc1nc(-c2cccc3ccccc23)cs1`: the displacement was 16.4%.
With `CC(=O)Oc1ccccc1/C=C1\C=C(c2ccc(Br)cc2)OC1=O` the figure was 12%; with `Cc1ccccc1NC(=O)C(=O)NNC(=O)c1ccc(Cl)cc1`, -5.9%; with `O=C(CN(c1ccc(F)cc1)S(=O)(=O)c1ccccc1)NCCc1ccccc1`, 0%.
Regarding `O=C1NC(=O)N(c2ccc(Cl)cc2)C(=O)/C1=C/c1cc(Cl)c(O)c(Cl)c1`, the displacement is -0.3%.
With `CC1(C)CC(=O)c2sc(NC(=O)/C=C/c3ccco3)nc2C1` the figure was -13.5%.
The figure for `Cc1ccc(-c2csc(NC(=O)CCc3ccccc3)n2)cc1` is 9.7%; for `COc1ccc(C2/C(=C(\O)c3ccccc3)C(=O)C(=O)N2CCCCCC(=O)O)c(OC)c1` (stereo unspecified) it is -6.6%; for `O=C1N=C(N2CCCCC2)S/C1=C\c1cccc(O)c1` it is -5.3%.
With `CN(C)CCCNC(=O)C(F)(F)C(F)(F)C(F)(F)C(F)(F)C(F)(F)Cl` the figure was 17.4%.
For the compound `CCOc1ccc(NCC(=O)N/N=C/c2c[nH]c3ccccc23)cc1`, the displacement worked out at 4.3%.
For `Cc1cccc(C)c1NC(=O)CCCOc1ccccc1`, the displacement is 5%.
With `Cc1cc(C(=O)Nc2ccc(N(C)C)cc2)ccc1[N+](=O)[O-]` the figure was 11.2%; with `COc1cccc(-c2nc(-c3ccc4c(c3)-c3ccccc3S4(=O)=O)c(-c3ccccc3)[nH]2)c1OC`, 7.7%.
The figure for `COc1ccccc1-n1cnc2nc[nH]c(=O)c21` is 5.1%; for `CC1=NN(c2nc(-c3ccccc3)cc(-c3ccc(C)cc3)n2)C(=O)C1` it is 3.2%; for `O=C(N=Nc1c(O)[nH]c2ccc(Br)cc12)c1ccc(Cl)cc1Cl` it is 6.7%.
With `CS(=O)(=O)N(CC(=O)Nc1ccc(Cl)cc1)c1cccc(Cl)c1` the figure was 3%; with `CC1CCN(CCOCCOc2ccc(F)cc2)CC1`, 7.4%.
For the compound `O=C(/C=C/c1ccco1)Nc1ccccc1[N+](=O)[O-]`, the displacement worked out at 13.2%.
Turning to `Cc1cc(OCC(=O)Nc2ccccc2C(N)=O)cc(C)c1Cl`, the displacement is -5.2%.
The figure for `CCN(CC)CC(=O)Nc1c(-c2ccccc2)c2cc(Br)ccc2[nH]c1=O` is -22%; for `COC(=O)C1=C(C)NC(=O)/C1=C\c1ccc(F)cc1` it is 3%.
As to `COc1cc2c(C)[nH]c(=O)c(CC(=O)Nc3ccccc3)c2cc1OC`, the displacement is 41.5%.
The figure for `C=CCOc1ccc(/C=C2/C(=O)N(c3ccccc3)N=C2C)cc1OCC` is 4.7%.
The figure for `O=C1CCC(=O)N1Cc1ccc(Cl)cc1` is -5%; for `Cc1cccc(OCCCN2CCCC2)c1C` it is -2.2%; for `Cc1ccc(-n2c(=O)c3c4c(sc3n3c(=S)[nH]nc23)CCCC4)cc1` it is 5.9%.
Turning to `O=C1CC(c2cccs2)c2ccc3ccccc3c2N1` (stereo unspecified), the displacement came to 4.6%.
In the case of `O=C1C(=O)N(c2nncs2)C(c2cccc(Br)c2)/C1=C(\O)c1ccc(F)cc1` (stereo unspecified), the displacement came to 16.6%.
In the case of `O=C(Nc1cccc(O)c1)/C(=C/c1cccc([N+](=O)[O-])c1)NC(=O)c1ccccc1`, the displacement was found to be 2.8%.
The figure for `Cc1cc(C)c(COCc2c(C)cc(C)c(C=O)c2C)c(C)c1C=O` is -10.3%; for `COc1ccc(/C=C2\N=C(c3cccc(OC)c3)OC2=O)cc1` it is -1.7%; for `CCC(C)C(NC(=O)c1cc(C)oc1C)C(=O)O` (stereo unspecified) it is 12.5%.
Turning to `CCOc1ccc(S(=O)(=O)N2CCC(C)CC2)c2ccccc12`, the displacement stood at 3.7%.
`O=C(Nc1ccc2c(c1)Cc1ccccc1-2)c1ccncc1`: the displacement was -3.2%.
`CC(=O)N(C)C1=C(Cl)C(=O)c2ccccc2C1=O`: the displacement was found to be 16.2%.
With `COC(=O)c1ccccc1-c1ccc(/C=C2/SC(=S)N(Cc3ccccc3)C2=O)o1` the figure was 21%; with `Cc1ccc(OCC(=O)Nc2cccc(I)c2)cc1`, 8.2%; with `COc1ccc(/C=C2\SC(=O)N(CCC(=O)N3CCOCC3)C2=O)cc1OC`, -3.1%.
As to `Cc1cccc(C(=O)NNC(=O)COc2cccc3ccccc23)c1O`, the displacement is -15.8%.
The figure for `Cc1cc(C)c(C(=O)/C(=C/c2cccs2)c2ccccc2)c(=O)[nH]1` is 2.6%.
With `O=C(NNC(=O)C1CCCO1)c1ccc(F)cc1` (stereo unspecified) the figure was -25.5%; with `CCCN1C(=O)c2ccccc2NC1c1ccc(-c2ccccc2[N+](=O)[O-])o1` (stereo unspecified), 2.1%.
The figure for `CC1=NN(c2ccccc2)C(O)(C(F)(F)F)C1` (stereo unspecified) is 5.7%; for `CCOC(=O)C(CCOc1ccc(Cl)c(C)c1)C(=O)OCC` it is -7.7%.
Consider `Cc1ccccc1OCC(=O)Nc1ccc(I)cc1Cl`, for which the displacement stood at 9.5%.
The figure for `NS(=O)(=O)c1cccc(NC(=O)/C=C/c2ccccc2)c1` is 5.1%; for `COc1ccc(C2CC(=O)C3=C(C2)Nc2ccccc2NC3c2ccc(O)c([N+](=O)[O-])c2)cc1OC` (stereo unspecified) it is 11.7%.
The figure for `CN1C(C)(C)CC(OC(=O)c2ccccc2C(=O)OC2CC(C)(C)N(C)C(C)(C)C2)CC1(C)C` is -0.4%.
With `COc1ccc(C(=O)N2CCN(Cc3ccc(SC)cc3)CC2)cc1OC` the figure was -0.9%; with `CCCCOc1ccc(C(=O)NCCOc2ccccc2Cl)cc1`, 11.2%; with `COc1ccc(OC)c(NC(=O)c2ccc(OCC(C)C)cc2)c1`, 12.1%.
For the compound `O=C(N/N=C/c1c[nH]c2ccc(Br)cc12)c1ccccc1O`, the displacement is -0.2%.
With `Cc1onc(-c2ccccc2Cl)c1C(=O)Nc1ccc(Oc2ccccc2)cc1` the figure was 3.4%; with `CCOC(=O)c1c(NC(=O)COc2ccccc2)sc(C(=O)Nc2ccccc2F)c1C`, -4.9%.
For the compound `CCOc1ccc(-n2nc3ccc(NC(=O)c4cc(Cl)ccc4OC)cc3n2)cc1`, the displacement was 7.5%.
`Cc1cccc(/C(N)=N/OC(=O)c2ccccc2Br)c1`: the displacement amounted to 2.2%.
For `CCN(CC)C(=O)/C=C/c1ccc(OC)c(S(=O)(=O)N2CCCCC2)c1`, the displacement is -4.9%.
The figure for `O=C1NC(=O)N(c2ccccc2)C(=O)/C1=C/c1cccc(O)c1` is 2.8%.
For `C=CCNC(=S)Nc1ccc(NC(C)=O)cc1`, the displacement was -5.8%.
The figure for `Fc1ccc(NC(=S)Nc2ccc(Nc3ccccc3)cc2)cc1` is -14.9%; for `O=C(c1cc2nc(-c3ccc(F)cc3)cc(C(F)(F)F)n2n1)N1CCOCC1` it is 5.2%; for `CC(=O)Nc1cc(I)cc(C(=O)O)c1` it is -16.2%.
Turning to `COc1ccc(OC(C)C(=O)Nc2ccc(Cl)cc2)cc1` (stereo unspecified), the displacement came out at 10.5%.
Consider `COc1cc(OC)c(OC)cc1CN1CCN(Cc2ccccn2)CC1`, for which the displacement was -5.1%.
In the case of `COCC(C)NCc1ccc2c(c1)OCO2` (stereo unspecified), the displacement came to 2.4%.
With `Oc1ccccc1-c1cc(-c2ccccc2)nc(N/N=C/c2ccc(F)cc2)n1` the figure was -6.1%.
`CCCS(=O)(=O)c1c(S(=O)(=O)CCC)c2ccccn2c1C(=O)c1ccc([N+](=O)[O-])cc1`: the displacement was 16.4%.
In the case of `Cc1c(NS(=O)(=O)c2cc(Cl)ccc2Cl)c(=O)n(-c2ccccc2)n1C`, the displacement was 12.2%.

The values above are taken from PubChem BioAssay AID1240 (Sanford-Burnham Center for Chemical Genomics, 2008).
